Measurements published in patent publication US20110183892A1 (priority 2007, published 2011).

Experiments:
[1] = test system: Ty1 derived +1PRF signal; details: yeast, gentamicin 500 μg/ml vs absence
Experimental: (§1) Frameshifting in yeast was monitored by using the dual luciferase reporter plasmid pYDL-LA (which contains an L-A virus derived −1PRF signal) and pYDL-Ty1 (which contains a Ty1 derived +1PRF signal)^20 in the presence or absence of gentamicin (500 μg/ml). […] Thus, similar to the loss of the RAC complex or Ssb function, the presence of gentamicin specifically affected −1 PRF in yeast. To test the generality of this hypothesis, the frameshifting studies were extended to assays in human-derived cells using reporter plasmids harboring the HIV-1 −1 PRF signal^21. […]
(§2) FIG. 2 are bar graphs showing the effects of gentamicin on PRF. (A) −1 PRF promoted by the endogenous yeast L-A viral signal and +1 PRF promoted by the Ty1 retrotransposable element signal were monitored in yeast cells in the presence (500 μg/ml) or absence of gentamicin. (B) −1 PRF promoted by the HIV-1 frameshift signal was monitored in both HeLa and Jurkat cells cultured in the indicated concentrations of gentamicin.
(§3) Frameshifting Assays. […] Cell extracts were prepared and frameshifting was measured as previously described^20,26. […] The Renilla and firefly luciferase activities produced by the 0-frame control and −1 PRF test construct were measured for each of the gentamicin concentrations. A minimum of three independent luciferase readings were taken from each sample. […]

[2] = test system: yeast cells; details: gentamicin 500 μg/ml
Experimental: Frameshifting in yeast was monitored by using the dual luciferase reporter plasmid pYDL-LA (which contains an L-A virus derived −1PRF signal) and pYDL-Ty1 (which contains a Ty1 derived +1PRF signal)^20 in the presence or absence of gentamicin (500 μg/ml). […] Thus, similar to the loss of the RAC complex or Ssb function, the presence of gentamicin specifically affected −1 PRF in yeast. To test the generality of this hypothesis, the frameshifting studies were extended to assays in human-derived cells using reporter plasmids harboring the HIV-1 −1 PRF signal^21. These studies employed HeLa CD4^+ I and Jurkat cells transiently transfected with pJD175c (harboring the HIV −1 PRF signal) or pJD175d (0-frame control)^21. Gentamicin stimulated HIV-1 directed −1 PRF by up to 40% in both cell lines (FIG. 2B).
Frameshifting Assays. Yeast BY4741 (MATa his3Δ1 leu2Δ0 met15Δ0 ura3Δ0) transformed with pYDL-LA, pYDL-Ty1, or pYDL-control^20 were grown overnight in the presence or absence of gentamicin (500 μg/ml). Cell extracts were prepared and frameshifting was measured as previously described^20,26. […] The Renilla and firefly luciferase activities produced by the 0-frame control and −1 PRF test construct were measured for each of the gentamicin concentrations. A minimum of three independent luciferase readings were taken from each sample. […]

[3] = test system: HIV-1 strain LAI; experiment: Limit-dilution titer of infectious virus with p24 antigen capture assay; format: cell-based; details: Jurkat E6-1, 50 μg/ml, days 4-10 post infection
Experimental: (§4) (A) Jurkat E6-1 cells were grown in RPMI-1640 media supplemented with 10% FBS. Cells were infected with HIV-1 (LAI) at an MOI of 0.01 in media containing gentamicin at 0, 50, 250, or 500 μg/ml. Infected or mock infected cells were maintained in the above media containing the corresponding concentration of gentamicin. Clarified viral supernatant was assayed for RT activity on days 2, 4, 6, 8, and 10 post infection. […] Results are from an average of 3 experiments with error bars corresponding to standard deviation values. (B) Clarified viral supernatants from days 4, 6, 8, and 10 above were used to perform limit-dilution assays in order to determine the level of infectious virus produced in untreated and gentamicin treated cells. A p24 antigen capture assay was used to detect virus. Results are reported as TCID50/ml vs. day post infection. The antigen capture assay was repeated with similar results while the RT activity assay was repeated twice with similar results.
Cells and viruses. Jurkat E6-1 cells (obtained through the ATCC) were cultured in RPMI-1640 supplemented with 10% fetal bovine serum at 37° C. and 5% CO2 according to the ATCC data sheet. HIV-1 strain LAI was obtained through the NIH AIDS Research and Reference Reagent Program.
HIV infection of Jurkat cells. All experiments were performed with Jurkat cells in 24-well plates and in duplicate. […]

[4] = test system: Jurkat E6-1 cells; details: Jurkat E6-1, 50 μg/ml
Experimental: as §4
HIV infection of Jurkat cells. All experiments were performed with Jurkat cells in 24-well plates and in duplicate. 2×10^5 cells were infected at an MOI of 0.01 or mock infected by incubating cells and virus in 150 μl of complete medium containing 0, 50, 250, or 500 μg/ml of gentamicin (Sigma) for 1 h at 37° C. in 5% CO2. […]

[5] = test system: L-A virus derived −1PRF signal; experiment: Dual luciferase frameshifting assay in yeast, pYDL-LA reporter; details: gentamicin 500 μg/ml vs absence
Experimental: as §1, §2, §3

gentamicin
effect on Ty1 directed +1 PRF [1]: virtually no effect | effect on cell growth [2]: did not noticeably affect cell growth | infectious virus in cell-free supernatant [3]: a small amount of virus was detectable at day 10 only | effects on cell growth or morphology [4]: no noticeable effects on cell growth or morphology | increase in L-A virus promoted −1 PRF [5]: > 3 fold
